# Measurements: the supplement of paper PMC9446081
# Out of some 39,000 compounds screened, about 220 (0.56%) showed activity. The list shows a part of the results.
# Test system: Escherichia coli K-12 BW25113
# Test: relative growth (OD600 normalised to plate interquartile mean) (fraction); higher = less growth inhibition, active = 0.2 or less
# Conditions: 50 µM; LB; incubation time: overnight (16-24 h)
# 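Note: static incubation at 37 °C against the wild-type strain, values averaged over two biological replicates.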
row,Structure (SMILES),relative growth
1,C[C@@H]1CN([C@@H](C)CO)C(=O)Cc2cc(NS(=O)(=O)c3ccc(Cl)cc3)ccc2O[C@H]1CN(C)C(=O)Nc1cccc2ccccc12,inactive: 1.03
2,CN(C)C(=N)N=C(N)N,inactive: 1.01
3,C[C@H](CO)N1C[C@H](C)[C@H](CN(C)C(=O)c2cccc(F)c2)Oc2cc(-c3ccncc3)ccc2S1(=O)=O,inactive: 0.96
4,"CC(C=CC1(O)C(C)=CC(=O)CC1(C)C)=CC(=O)O (mixture of isomers) [""ABSCISIC ACID (cis,trans; +/-)""]",inactive: 1.05
5,C[C@@H]1CCCCO[C@@H](CN(C)S(=O)(=O)c2ccccc2)[C@H](C)CN([C@H](C)CO)C(=O)c2cc(NC(=O)NC3CCCCC3)ccc2O1,inactive: 1.01
6,CC(=O)NCCCC[C@@H]1NC(=O)[C@@H]2C[C@H](C(=O)NCCCCCN)[C@H](c3cccc(OCCO)c3)N2C1=O,inactive: 1.03
7,c1ccc2c([C@@H]3CCCN3)cccc2c1,inactive: 1.01
8,C=CCCCCCCCCCCCC(O)CC(O)CO (configuration not stated),inactive: 0.971
9,CN1C(=O)c2cc(NC(=O)c3cccc(C#N)c3)ccc2OC[C@H]2O[C@@H](CC(=O)NCCN3CCCC3)CC[C@@H]21,inactive: 0.967
10,C[C@@H]1CN([C@H](C)CO)C(=O)c2ccccc2-c2ccccc2CO[C@H]1CN(C)S(=O)(=O)c1cn(C)cn1,inactive: 0.934
11,C[C@H](CO)N1C[C@H](C)[C@H](CN(C)Cc2ccc(C(=O)Nc3ccccc3N)cc2)Oc2ccc(NC(=O)C3CCCCC3)cc2CC1=O,inactive: 0.999
12,C[C@@H]1CN([C@@H](C)CO)C(=O)c2cc(NC(=O)Cc3ccccc3)ccc2O[C@H]1CN(C)Cc1ccc(-c2ccccc2)cc1,inactive: 1.02
13,C[C@H](CO)N1C[C@H](C)[C@H](CN(C)C(=O)Nc2ccc3c(c2)OCO3)OCCCC[C@H](C)Oc2ccc(NC(=O)Cc3ccccc3)cc2C1=O,inactive: 0.991
14,COC(=O)C[C@H]1CC[C@@H]2[C@H](COc3ccc(NS(=O)(=O)c4ccccc4Cl)cc3C(=O)N2C)O1,inactive: 1.01
15,COc1cccc(S(=O)(=O)Nc2ccc3c(c2)[C@@H]2C[C@@H](CC(=O)NC4CCCCC4)O[C@@H](CO)[C@@H]2O3)c1,inactive: 0.986
16,C[C@H](CO)N1C[C@H](C)[C@@H](CN(C)S(=O)(=O)c2cn(C)cn2)Oc2ccc(NC(=O)C3CCCCC3)cc2CC1=O,inactive: 1.01
17,C[C@H](CO)N1C[C@H](C)[C@@H](CN(C)Cc2ccc3c(c2)OCO3)Oc2ccc(NC(=O)Cn3cnnn3)cc2CC1=O,inactive: 0.975
18,C[C@H](CO)N1C[C@H](C)[C@H](CN(C)Cc2ccc(C(F)(F)F)cc2)OCCCC[C@H](C)Oc2ccc(NC(=O)Nc3ccc4c(c3)OCO4)cc2C1=O,inactive: 1
19,CO[C@@H]1CN(C)C(=O)c2ccc(NC(=O)Nc3cccc(Cl)c3)cc2OC[C@H](C)N(C(=O)Nc2c(C)noc2C)C[C@@H]1C,inactive: 0.985

row,Structure (SMILES),relative growth
1,Cc1ccc(S(=O)(=O)N(C)C[C@H]2Oc3ccc(NC(=O)Nc4cccc5ccccc45)cc3C(=O)N([C@@H](C)CO)C[C@H]2C)cc1,inactive: 1.02
2,COc1ccc(S(=O)(=O)Nc2ccc3c(c2)CC(=O)N([C@H](C)CO)C[C@H](C)[C@@H](CN(C)S(C)(=O)=O)O3)cc1,inactive: 0.986
3,CCCCC/C=C\C/C=C\CCCCCCCC(=O)O[C@H](COC(=O)CCCCCCCCCCCCCCC)COP(=O)(O)OCC[N+](C)(C)C,inactive: 0.99
4,C[C@@H]1CCCCO[C@@H](CN(C)C(=O)Cc2ccccc2)[C@H](C)CN([C@@H](C)CO)C(=O)c2cc(NS(=O)(=O)c3ccc(F)cc3)ccc2O1,inactive: 0.997
5,C[C@@H]1CCCCO[C@@H](CN(C)C(=O)Nc2ccc3c(c2)OCO3)[C@H](C)CN([C@@H](C)CO)C(=O)c2cc(NS(=O)(=O)c3ccc(F)cc3)ccc2O1,inactive: 1.04
6,C=CC1=C(C(=O)O)N2C(=O)[C@@H](NC(=O)/C(=N\O)c3csc(N)n3)[C@H]2SC1,active: 0.0321
7,CC1(C)SC2C(N3C(=O)C(c4ccccc4)NC3(C)C)C(=O)N2C1C(=O)[O-].[K+] (configuration not stated),active: 0.0443
8,C[C@@H]1CCCCO[C@@H](CN(C)Cc2ccc(C(=O)O)cc2)[C@@H](C)CN([C@@H](C)CO)C(=O)c2cc(NC(=O)Nc3cccc4ccccc34)ccc2O1,inactive: 0.983
9,C[C@H](CO)N1C[C@H](C)[C@@H](CN(C)C(=O)c2ccccc2F)Oc2ncc(C#Cc3ccncc3)cc2C1=O,inactive: 0.985
10,Cc1ccc(S(=O)(=O)Nc2ccc3c(c2)CC(=O)N([C@@H](C)CO)C[C@H](C)[C@H](CN(C)C(=O)NC(C)C)O3)cc1,inactive: 0.976
11,C[C@H](CO)N1C[C@H](C)[C@H](CN(C)C(=O)Nc2ccc3c(c2)OCO3)Oc2ncc(-c3cccnc3)cc2C1=O,inactive: 0.95
12,C[C@@H]1CCCCO[C@H](CN(C)C(=O)Nc2ccc3c(c2)OCO3)[C@@H](C)CN([C@H](C)CO)C(=O)c2cc(NS(=O)(=O)c3cccs3)ccc2O1,inactive: 0.997
13,C/C(=C/C(=O)N1CCN(C)CC1)C(=O)O,inactive: 1.01
14,COc1ccc(CN(C)C[C@H]2Oc3ccc(NC(=O)Nc4cccc5ccccc45)cc3C(=O)N([C@@H](C)CO)C[C@H]2C)cc1,inactive: 1.01
15,COc1ccc(NC(=O)Nc2ccc3c(c2)C(=O)N([C@H](C)CO)C[C@H](C)[C@@H](CN(C)C(=O)C2CCCCC2)OCCCC[C@@H](C)O3)cc1,inactive: 1.01
16,C[C@@H]1CCCCO[C@H](CN(C)C)[C@@H](C)CN([C@@H](C)CO)C(=O)c2cc(NC(=O)Nc3cccc4ccccc34)ccc2O1,inactive: 1.01
17,CCCN(C)C[C@H]1OCCCC[C@@H](C)Oc2ccc(NC(=O)CCC(F)(F)F)cc2C(=O)N([C@@H](C)CO)C[C@H]1C,inactive: 1.02
18,C[C@@H]1CN([C@@H](C)CO)C(=O)c2cc(NC(=O)CCCCCC(=O)Nc3ccccc3N)ccc2O[C@@H]1CN(C)C(=O)Nc1ccccc1,inactive: 0.994
